No constants are given. Whether binding was seen depends on the method and setting. For part of these data: In cells and extracts the contact can be indirect. Some results given as binding are weak or reduced against the parent protein; the word gives no strength. For part of these data: Sequences can lack the tags named with a protein.
Tests used:
[1] = molecular target: GST·SNAP-25 (UniProt P60880); test: pull-down; 1 μM GST·SNAP-25 or GST with equimolar pFOLD·ORP2 and Glutathione-Agarose, 100 μl PBS, 1 h, room temperature; SDS-PAGE, Coomassie; both purified
[2] = molecular target: T1, YFP(N)·HA·Osh3p (S. cerevisiae) (UniProt P38713); test: co-IP; anti-HA immunoprecipitation from lysates of yeast cells expressing YFP(N)·HA·Osh3p or YFP(N)·HA·Osh1p; Western blot; wt and SNARE mutant strains
T1 sequence: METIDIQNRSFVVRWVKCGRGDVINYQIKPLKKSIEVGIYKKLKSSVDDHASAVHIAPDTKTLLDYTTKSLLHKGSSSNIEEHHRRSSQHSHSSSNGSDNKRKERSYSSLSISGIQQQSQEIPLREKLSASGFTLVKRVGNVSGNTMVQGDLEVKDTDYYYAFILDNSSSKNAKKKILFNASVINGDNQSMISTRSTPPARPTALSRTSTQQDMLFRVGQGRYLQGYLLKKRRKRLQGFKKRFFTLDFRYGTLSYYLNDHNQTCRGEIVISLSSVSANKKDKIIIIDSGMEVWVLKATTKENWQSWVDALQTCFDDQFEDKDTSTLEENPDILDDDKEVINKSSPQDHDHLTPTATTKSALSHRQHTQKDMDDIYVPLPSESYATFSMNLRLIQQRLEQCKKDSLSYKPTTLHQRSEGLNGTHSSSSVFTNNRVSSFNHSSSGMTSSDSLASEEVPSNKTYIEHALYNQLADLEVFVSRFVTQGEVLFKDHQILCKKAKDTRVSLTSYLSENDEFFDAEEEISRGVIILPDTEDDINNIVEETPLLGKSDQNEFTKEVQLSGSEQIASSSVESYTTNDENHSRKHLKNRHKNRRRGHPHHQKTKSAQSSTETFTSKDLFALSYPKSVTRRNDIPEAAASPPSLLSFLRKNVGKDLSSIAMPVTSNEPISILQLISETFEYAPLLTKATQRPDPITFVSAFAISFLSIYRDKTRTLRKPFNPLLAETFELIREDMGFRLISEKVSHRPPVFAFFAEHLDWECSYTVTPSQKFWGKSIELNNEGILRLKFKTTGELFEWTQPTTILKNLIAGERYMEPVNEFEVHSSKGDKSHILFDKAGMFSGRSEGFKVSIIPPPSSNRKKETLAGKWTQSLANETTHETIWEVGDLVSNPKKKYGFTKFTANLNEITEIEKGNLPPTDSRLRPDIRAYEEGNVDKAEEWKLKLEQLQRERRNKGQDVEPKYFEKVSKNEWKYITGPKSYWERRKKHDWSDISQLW

Chains of the proteins cited; added tags and fusions are not shown.
UniProt P60880: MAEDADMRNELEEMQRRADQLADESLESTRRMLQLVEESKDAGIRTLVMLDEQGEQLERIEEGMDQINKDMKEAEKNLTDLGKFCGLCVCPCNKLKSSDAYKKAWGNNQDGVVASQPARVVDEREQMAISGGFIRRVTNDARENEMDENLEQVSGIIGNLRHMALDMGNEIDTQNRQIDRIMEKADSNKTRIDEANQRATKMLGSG
UniProt P40357: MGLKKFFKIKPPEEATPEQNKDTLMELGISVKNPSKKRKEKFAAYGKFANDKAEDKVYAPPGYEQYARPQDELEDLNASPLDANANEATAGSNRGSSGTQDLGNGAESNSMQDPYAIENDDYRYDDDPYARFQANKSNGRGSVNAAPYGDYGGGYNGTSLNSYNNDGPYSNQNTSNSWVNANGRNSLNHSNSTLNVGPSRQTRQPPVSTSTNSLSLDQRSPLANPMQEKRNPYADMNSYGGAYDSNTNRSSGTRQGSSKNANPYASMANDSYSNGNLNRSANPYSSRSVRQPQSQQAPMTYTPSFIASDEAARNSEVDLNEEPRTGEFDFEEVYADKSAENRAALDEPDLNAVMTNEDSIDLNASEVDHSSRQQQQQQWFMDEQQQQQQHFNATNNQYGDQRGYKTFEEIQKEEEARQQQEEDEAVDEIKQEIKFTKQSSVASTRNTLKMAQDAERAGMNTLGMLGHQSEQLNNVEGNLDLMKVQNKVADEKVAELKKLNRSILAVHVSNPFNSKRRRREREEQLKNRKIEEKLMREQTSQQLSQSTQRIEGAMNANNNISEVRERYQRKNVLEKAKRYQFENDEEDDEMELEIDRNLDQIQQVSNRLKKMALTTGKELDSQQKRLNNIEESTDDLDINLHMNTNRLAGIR
UniProt Q9H1P3: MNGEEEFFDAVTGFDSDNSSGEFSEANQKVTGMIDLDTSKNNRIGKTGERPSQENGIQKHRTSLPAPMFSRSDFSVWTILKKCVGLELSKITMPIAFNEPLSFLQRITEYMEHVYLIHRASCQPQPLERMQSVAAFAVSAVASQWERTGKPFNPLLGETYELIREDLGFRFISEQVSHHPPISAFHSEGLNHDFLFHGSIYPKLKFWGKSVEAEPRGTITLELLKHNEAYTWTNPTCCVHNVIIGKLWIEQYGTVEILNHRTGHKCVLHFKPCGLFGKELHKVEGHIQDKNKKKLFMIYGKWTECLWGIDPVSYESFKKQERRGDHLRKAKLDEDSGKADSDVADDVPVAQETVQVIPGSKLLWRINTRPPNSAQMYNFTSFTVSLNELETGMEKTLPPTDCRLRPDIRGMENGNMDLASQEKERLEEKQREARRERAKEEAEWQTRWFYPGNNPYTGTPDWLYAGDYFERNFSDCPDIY
UniProt P22214: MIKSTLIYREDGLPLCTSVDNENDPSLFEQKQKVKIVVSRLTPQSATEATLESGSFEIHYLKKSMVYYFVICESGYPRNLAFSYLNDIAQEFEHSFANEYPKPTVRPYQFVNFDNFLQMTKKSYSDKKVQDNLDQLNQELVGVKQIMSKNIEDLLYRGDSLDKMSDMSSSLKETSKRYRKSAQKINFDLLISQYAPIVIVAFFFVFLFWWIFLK

[3] = molecular target: T2, YFP(C)·Scs2p (S. cerevisiae) (UniProt P40075); test: split reporter; BiFC in living sec9-4 Δpep4 yeast cells (Y39) at the permissive temperature; Osh3p level restored
T2 sequence: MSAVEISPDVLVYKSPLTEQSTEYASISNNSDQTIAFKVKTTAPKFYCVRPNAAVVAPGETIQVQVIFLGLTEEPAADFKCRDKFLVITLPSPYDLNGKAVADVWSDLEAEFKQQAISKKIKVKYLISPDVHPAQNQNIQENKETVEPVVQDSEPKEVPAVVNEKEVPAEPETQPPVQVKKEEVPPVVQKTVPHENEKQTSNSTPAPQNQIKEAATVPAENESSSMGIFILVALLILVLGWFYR

[4] = molecular target: T2, YFP(C)·Scs2p (S. cerevisiae); test: split reporter; BiFC in living sec9-4 mutant yeast cells (Y6) at the permissive temperature; Osh proteins are degraded in this strain; YFP(C)·Sec9-4p used in place of YFP(C)·Sec9p
[5] = molecular target: T2, YFP(C)·Scs2p (S. cerevisiae); test: split reporter; BiFC of YFP(N) and YFP(C) fusions in living wild type yeast cells grown at 24 °C, fluorescence microscopy; also in exocytosis mutants other than sec9-4 and with OSH3 overexpression (signals enhanced)
[6] = molecular target: T3, Venus(C)·VAPA (HEK293 plasmid) (human), Q9P0L0; test: split reporter; BiFC of Venus(N) and Venus(C) fusions in transfected HEK293 cells, fixed after 24 h; co-transfection marker mCherry or mCherry·ORP; details: remark: other sources report otherwise
T3 chain: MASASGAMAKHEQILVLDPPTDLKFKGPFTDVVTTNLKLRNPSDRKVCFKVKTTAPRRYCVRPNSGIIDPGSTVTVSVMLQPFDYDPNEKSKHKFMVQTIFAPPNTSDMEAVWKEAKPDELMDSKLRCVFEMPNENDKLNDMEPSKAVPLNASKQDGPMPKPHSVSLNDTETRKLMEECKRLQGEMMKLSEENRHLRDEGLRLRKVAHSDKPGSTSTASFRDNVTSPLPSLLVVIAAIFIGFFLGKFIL

[7] = molecular target: T4, Venus(C)·VAPA (lentiviral) (human), Q9P0L0; test: split reporter; BiFC of Venus(N)·VAPA and Venus(C)·VAPA in wt mouse hippocampal neurons, lentiviral; scrambled or ORP2 shRNA; infected DIV 3 and fixed DIV 7, or infected DIV 7 and fixed DIV 14; details: remark: other sources report otherwise
T4 chain: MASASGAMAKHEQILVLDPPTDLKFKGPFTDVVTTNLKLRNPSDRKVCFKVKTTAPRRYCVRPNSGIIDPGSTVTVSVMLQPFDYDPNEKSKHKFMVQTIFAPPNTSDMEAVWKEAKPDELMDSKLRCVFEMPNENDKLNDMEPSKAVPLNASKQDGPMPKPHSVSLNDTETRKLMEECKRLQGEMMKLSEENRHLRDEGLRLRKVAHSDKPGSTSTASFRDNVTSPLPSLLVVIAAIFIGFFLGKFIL

[8] = molecular target: T2, YFP(C)·Scs2p (S. cerevisiae); test: split reporter; BiFC in living Δosh1-3 yeast cells (Y36), compared with wt (Y2)
[9] = molecular target: T2, YFP(C)·Scs2p (S. cerevisiae); test: split reporter; BiFC of YFP(N) and YFP(C) fusions in living wild type yeast cells grown at 24 °C, fluorescence microscopy; also in exocytosis mutants other than sec9-4 and with OSH3 overexpression (signals enhanced); remark: listed apart in the source
[10] = molecular target: YFP(C)·Sec9p (S. cerevisiae) (UniProt P40357); test: as above

Question: How did the binding [1] turn out when “His6·pFOLD·ORP2 (from UniProt Q9H1P3 1-480)” was run?
Answer: binds

Question: Which binding [2] does the source give for “Sec9p (endogenous) (from UniProt P40357 1-651)” here?
Answer: binds

Question: “YFP(N)·Sec22p (from UniProt P22214 1-214)” was tested. Which binding [3] did it give?
Answer: binds

Question: What about the binding [4] of the same molecule?
Answer: no binding (condition: in the sec9-4 mutant strain)

Question: What about the binding [5] of the same molecule?
Answer: binds

B1: Venus(N)·VAPA (HEK293 plasmid), Q9P0L0 1-249 (protein)
chain: MASASGAMAKHEQILVLDPPTDLKFKGPFTDVVTTNLKLRNPSDRKVCFKVKTTAPRRYCVRPNSGIIDPGSTVTVSVMLQPFDYDPNEKSKHKFMVQTIFAPPNTSDMEAVWKEAKPDELMDSKLRCVFEMPNENDKLNDMEPSKAVPLNASKQDGPMPKPHSVSLNDTETRKLMEECKRLQGEMMKLSEENRHLRDEGLRLRKVAHSDKPGSTSTASFRDNVTSPLPSLLVVIAAIFIGFFLGKFIL
Question: With B1 as the molecule, how does the binding [6] read?
Answer: binds

B2: Venus(N)·VAPA (lentiviral), Q9P0L0 1-249 (natural protein)
chain: MASASGAMAKHEQILVLDPPTDLKFKGPFTDVVTTNLKLRNPSDRKVCFKVKTTAPRRYCVRPNSGIIDPGSTVTVSVMLQPFDYDPNEKSKHKFMVQTIFAPPNTSDMEAVWKEAKPDELMDSKLRCVFEMPNENDKLNDMEPSKAVPLNASKQDGPMPKPHSVSLNDTETRKLMEECKRLQGEMMKLSEENRHLRDEGLRLRKVAHSDKPGSTSTASFRDNVTSPLPSLLVVIAAIFIGFFLGKFIL
Question: Which binding [7] does the source give for B2 here?
Answer: binds

B3: YFP(N)·Scs2p (protein, UniProt P40075 1-244)
chain: MSAVEISPDVLVYKSPLTEQSTEYASISNNSDQTIAFKVKTTAPKFYCVRPNAAVVAPGETIQVQVIFLGLTEEPAADFKCRDKFLVITLPSPYDLNGKAVADVWSDLEAEFKQQAISKKIKVKYLISPDVHPAQNQNIQENKETVEPVVQDSEPKEVPAVVNEKEVPAEPETQPPVQVKKEEVPPVVQKTVPHENEKQTSNSTPAPQNQIKEAATVPAENESSSMGIFILVALLILVLGWFYR
Question: Which results are given for B3?
Answer: binding [8]: binds weakly; binding [3]: binds; binding [4]: no binding (condition: in the sec9-4 mutant strain); binding [9]: binds

B4: YFP(N)·Osh2p (protein, UniProt Q12451 1-1283)
chain: MSREDLSIAEDLNQVSKPLLKVKLLEVLGQGDFKHLKALVDNEFQPKDDPSVQQVLNLILHYAVQVAPILLIKEIVAHWVDQVGDEKSSSKSDDGIHLDLNYQDENGNTPLHLAAAQSRSDVISFLLSQKSINDCVKNKAHQQPLDMCKDLNVAQMIQLKRDDYFLETVHSLRAAMNKRDFSKLDSIWKNPRNLNLLDINGIDPETGTTLLYEYSQKKDIEMCQWLLKHGAEATVKDGKGRSPLDLVKNIKLPAKPSNNVTPEIKLKNLLEKNLREQAIVHEDVASSKPPTYKGFLKKWTNFAHGYKLRWFILSGDGNLSYYKDQSHVDRPRGTLKVSTCRLHIDSSEKLNFELLGGITGTTRWRLKGNHPIETTRWVNAIQSAIRFAKDKEILNKKKAVPPSLALKNKSPALISHSKTQGSLPEASQYYQHTLHKEVIQPSSVSLYRRPSNNLSVVSSEIQLNDNLTESGKRFVSKMIENRLDGSKTPVGVHTGSALQRVRSSNTLKSNRSMQSGSGVASPIDKVPNGANLSQSNTTTGSTASLSDNNYIDNFEGDEANSDDEEEDLGINFDRDEEYIKAQYGPYKEKLDMYEQAISIELSSLIELIEQEEPSPEVWLTIKKSLINTSTIFGKLKDLTYKRDKRLVDMVSKQGDVNNVWVQSVKELEMELSNKTERLASIDKERRGLKKILHKKLLESHATAGNKESLENDKEQESDTTASTLGQIAKFISATKEEDEASDADEFYDAAELVDEVTELTEAHPEISTAAAPKHAPPPVPNETDNDSQYVQDEKSKIESNVEKTSQKFEKQNNLVTEDEPKTDQSLKNFKAEDKESQVKEKTKEIASSVIGEKTIVAVTTVQKRKEEYLLKEGSYLGYEDGIRKRLSMDKDDRPKISLWAVLKSMVGKDMTRMTLPVTFNEPTSLLQRVAEDLEYSELLDQAATFEDSTLRTLYVAAFTASSYASTTKRVAKPFNPLLGETFEYSRPDKQYRFFTEQVSHHPPISATWTESPRWDFWGESFVDTKFNGRSFNVKHLGLWHIKLRPNDNEKEELYTWKKPNNTVIGILIGNPQVDNHGEVNVVNHTTGDHCKLYFKARGWRSSGAYEITGEVYNKKKQKVWILGGHWNEAIFAKKVVKDGDLSLEKTRTAASAGNGPTDDGTKFLIWKANDRPEEPFNLTPFAITLNAPQPHLLPWLPPTDTRLRPDQRAMEDGRYDEAGDEKFRVEEKQRAARRKREENNLEYHPQWFVRDTHPITKAKYWRYTGKYWVKRRDHDLKDCGDIF
Question: How did the binding [9] turn out when B4 was run?
Answer: binds

Question: What about the binding [10] of the same molecule?
Answer: binds

B5: YFP(N)·Osh1p (protein, UniProt P35845 1-1188)
chain: MEQPDLSSVAISKPLLKLKLLDALRQGSFPNLQDLLKKQFQPLDDPNVQQVLHLMLHYAVQVAPMAVIKEIVHHWVSTTNTTFLNIHLDLNERDSNGNTPLHIAAYQSRGDIVAFLLDQPTINDCVLNNSHLQAIEMCKNLNIAQMMQVKRSTYVAETAQEFRTAFNNRDFGHLESILSSPRNAELLDINGMDPETGDTVLHEFVKKRDVIMCRWLLEHGADPFKRDRKGKLPIELVRKVNENDTATNTKIAIDIELKKLLERATREQSVIDVTNNNLHEAPTYKGYLKKWTNFAQGYKLRWFILSSDGKLSYYIDQADTKNACRGSLNMSSCSLHLDSSEKLKFEIIGGNNGVIRWHLKGNHPIETNRWVWAIQGAIRYAKDREILLHNGPYSPSLALSHGLSSKVSNKENLHATSKRLTKSPHLSKSTLTQNDHDNDDDSTNNNNNKSNNDYDDNNNNNNNDDDDYDDDDESRPLIEPLPLISSRSQSLSEITPGPHSRKSTVSSTRAADIPSDDEGYSEDDSDDDGNSSYTMENGGENDGDEDLNAIYGPYIQKLHMLQRSISIELASLNELLQDKQQHDEYWNTVNTSIETVSEFFDKLNRLTSQREKRMIAQMTKQRDVNNVWIQSVKDLEMELVDKDEKLVALDKERKNLKKMLQKKLNNQPQVETEANEESDDANSMIKGSQESTNTLEEIVKFIEATKESDEDSDADEFFDAEEAASDKKANDSEDLTTNKETPANAKPQEEAPEDESLIVISSPQVEKKNQLLKEGSFVGYEDPVRTKLALDEDNRPKIGLWSVLKSMVGQDLTKLTLPVSFNEPTSLLQRVSEDIEYSHILDQAATFEDSSLRMLYVAAFTASMYASTTNRVSKPFNPLLGETFEYARTDGQYRFFTEQVSHHPPISATWTESPKWDFYGECNVDSSFNGRTFAVQHLGLWYITIRPDHNISVPEETYSWKKPNNTVIGILMGKPQVDNSGDVKVTNHTTGDYCMLHYKAHGWTSAGAYEVRGEVFNKDDKKLWVLGGHWNDSIYGKKVTARGGELTLDRIKTANSATGGPKLDGSKFLIWKANERPSVPFNLTSFALTLNALPPHLIPYLAPTDSRLRPDQRAMENGEYDKAAAEKHRVEVKQRAAKKEREQKGEEYRPKWFVQEEHPVTKSLYWKFNGEYWNKRKNHDFKDCADIF
Question: B5 was tested. Which binding [9] did it give?
Answer: binds

Question: And the binding [10]?
Answer: binds

— article PMC7904734, “ORP/Osh mediate cross-talk between ER-plasma membrane contact site components and plasma membrane SNAREs” (Cellular and Molecular Life Sciences: CMLS, 2020)
